The source of these data is patent US20260232829A1 (CYTOSPIRE THERAPEUTICS, published 2026).

Assay [1] deals with T1, Human his-tagged NKG2D/CD314 (Acro Biosystems, NKD-H5245) (human, UniProt P26718 78-216, limits assumed).
T1 construct: Bought recombinant protein with a His tag; also called Human NKG2D-His protein; NKG2D-His
T1 sequence (looked up): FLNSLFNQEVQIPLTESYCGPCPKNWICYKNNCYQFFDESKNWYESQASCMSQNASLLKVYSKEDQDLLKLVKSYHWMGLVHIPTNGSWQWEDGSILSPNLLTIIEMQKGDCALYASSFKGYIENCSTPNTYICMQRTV
The assay is described as follows: SPR (Biacore), molecule captured on anti-human IgG Fc chip, antigen as analyte, 1:1 Langmuir fit. The method, then:
(§1) In brief, the test molecules were first immobilized on a goat anti-human IgG (Fc specific) antibody plated on a Biacore CM5 Series S sensor chip (CFJB1172, Cytiva Cat No. 29149603) by injection at 5 nM at flow rate 30 ul/min. […] The quality of the fits was assessed by visual inspection.
In general terms: Surface plasmon resonance follows binding to a sensor surface in real time, without labels.

Assay [2] deals with T2, Human IL-15R beta/CD122 Protein, His Tag (Acro Biosystems CD2-H5221) (human, UniProt P14784 27-239).
T2 construct: Bought recombinant protein with a His tag; also called Human IL-15Rβ protein; IL-15 receptor beta-His
T2 sequence (looked up): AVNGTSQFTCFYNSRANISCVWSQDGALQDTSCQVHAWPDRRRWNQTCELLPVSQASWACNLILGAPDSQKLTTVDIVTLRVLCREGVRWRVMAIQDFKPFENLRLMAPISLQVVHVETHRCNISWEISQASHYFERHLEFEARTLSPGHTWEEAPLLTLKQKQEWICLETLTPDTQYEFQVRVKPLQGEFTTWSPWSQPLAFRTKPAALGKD
The assay is described as above. The method, then: as §1

B1: CYTB02 (other)
heavy: QVQLVESGGGLVKPGGSLRLSCAASGFTFSSYGMHWVRQAPGKGLEWVAFIRYDGSNKYYADSVKGRFTISRDNSKNTKYLQMNSLRAEDTAVYYCAKDRGLGDGTYFDYWGQGTTVTVSS[human IgG1 constant region omitted here]GGSITCPPPMSVEHADIWVKSYSLYSRERYICNSGFKRKAGTSSLTECVLNKATNVAHWTTPSLKCIRGGGGSGGGSGGGGS[about 120 residues omitted here]
light: QSALTQPASVSGSPGQSITISCSGSSSNIGNNAVNWYQQLPGKAPKLLIYYDDLLPSGVSDRFSGSKSGTSAFLAISGLQSEDEADYYCAAWDDSLNGPVFGGGTKLTVLGQPKANPTVTLFPPSSEELQANKATLVCLISDFYPGAVTVAWKADGSPVKAGVETTKPSKQSNNKYAASSYLSLTPEQWKSHRSYSCQVTHEGSTVEKTVAPTEC
notes: Immunocytokine, Format A: anti-NKG2D IgG1 (H1/L1) with sushi-IL-15 fused to the C-terminus of each heavy chain
For orientation: Kd means the equilibrium constant for the complex coming apart. Read a low Kd as tighter binding. Regarding B1, the Kd in assay [1] is 0.24 nM; in assay [2], 2.3 nM.

B2: CYTB03 (other)
heavy: QVQLVESGGGLVKPGGSLRLSCAASGFTFSSYGMHWVRQAPGKGLEWVAFIRYDGSNKYYADSVKGRFTISRDNSKNTLYLQMNSLRAEDTAVYYCAKDRGLGDGTYFDYWGQGTTVTVSS[human IgG1 constant region omitted here]GGSITCPPPMSVEHADIWVKSYSLYSRERYICNSGFKRKAGTSSLTECVLNKATNVAHWTTPSLKCIRGGGGSGGGSGGGGS[about 120 residues omitted here]
light: QSALTQPASVSGSPGQSITISCSGSSSNIGNNAVNWYQQLPGKAPKLLIYYDDLLPSGVSDRFSGSKSGTSAFLAISGLQSEDEADYYCAAWDDSLNGPVFGGGTKLTVLGQPKANPTVTLFPPSSEELQANKATLVCLISDFYPGAVTVAWKADGSPVKAGVETTKPSKQSNNKYAASSYLSLTPEQWKSHRSYSCQVTHEGSTVEKTVAPTEC
notes: Immunocytokine, Format A: anti-NKG2D IgG1 (H1 with framework change/L1) with sushi-IL-15 at the C-terminus of each heavy chain
For B2, the values for the Kd in assay [1] and in assay [2] were 0.24 nM and 2.6 nM, respectively.
